Measurements from PMC9223716.
Read-outs that look alike come from different tables or passages of the source. These are yes or no findings as the source states them, for the method shown. In cells and extracts the contact can be indirect. Some binding calls cover weakened binding; strength is not graded here.

Amino acid sequences for entries named in this document (tags omitted).
UniProt P70227: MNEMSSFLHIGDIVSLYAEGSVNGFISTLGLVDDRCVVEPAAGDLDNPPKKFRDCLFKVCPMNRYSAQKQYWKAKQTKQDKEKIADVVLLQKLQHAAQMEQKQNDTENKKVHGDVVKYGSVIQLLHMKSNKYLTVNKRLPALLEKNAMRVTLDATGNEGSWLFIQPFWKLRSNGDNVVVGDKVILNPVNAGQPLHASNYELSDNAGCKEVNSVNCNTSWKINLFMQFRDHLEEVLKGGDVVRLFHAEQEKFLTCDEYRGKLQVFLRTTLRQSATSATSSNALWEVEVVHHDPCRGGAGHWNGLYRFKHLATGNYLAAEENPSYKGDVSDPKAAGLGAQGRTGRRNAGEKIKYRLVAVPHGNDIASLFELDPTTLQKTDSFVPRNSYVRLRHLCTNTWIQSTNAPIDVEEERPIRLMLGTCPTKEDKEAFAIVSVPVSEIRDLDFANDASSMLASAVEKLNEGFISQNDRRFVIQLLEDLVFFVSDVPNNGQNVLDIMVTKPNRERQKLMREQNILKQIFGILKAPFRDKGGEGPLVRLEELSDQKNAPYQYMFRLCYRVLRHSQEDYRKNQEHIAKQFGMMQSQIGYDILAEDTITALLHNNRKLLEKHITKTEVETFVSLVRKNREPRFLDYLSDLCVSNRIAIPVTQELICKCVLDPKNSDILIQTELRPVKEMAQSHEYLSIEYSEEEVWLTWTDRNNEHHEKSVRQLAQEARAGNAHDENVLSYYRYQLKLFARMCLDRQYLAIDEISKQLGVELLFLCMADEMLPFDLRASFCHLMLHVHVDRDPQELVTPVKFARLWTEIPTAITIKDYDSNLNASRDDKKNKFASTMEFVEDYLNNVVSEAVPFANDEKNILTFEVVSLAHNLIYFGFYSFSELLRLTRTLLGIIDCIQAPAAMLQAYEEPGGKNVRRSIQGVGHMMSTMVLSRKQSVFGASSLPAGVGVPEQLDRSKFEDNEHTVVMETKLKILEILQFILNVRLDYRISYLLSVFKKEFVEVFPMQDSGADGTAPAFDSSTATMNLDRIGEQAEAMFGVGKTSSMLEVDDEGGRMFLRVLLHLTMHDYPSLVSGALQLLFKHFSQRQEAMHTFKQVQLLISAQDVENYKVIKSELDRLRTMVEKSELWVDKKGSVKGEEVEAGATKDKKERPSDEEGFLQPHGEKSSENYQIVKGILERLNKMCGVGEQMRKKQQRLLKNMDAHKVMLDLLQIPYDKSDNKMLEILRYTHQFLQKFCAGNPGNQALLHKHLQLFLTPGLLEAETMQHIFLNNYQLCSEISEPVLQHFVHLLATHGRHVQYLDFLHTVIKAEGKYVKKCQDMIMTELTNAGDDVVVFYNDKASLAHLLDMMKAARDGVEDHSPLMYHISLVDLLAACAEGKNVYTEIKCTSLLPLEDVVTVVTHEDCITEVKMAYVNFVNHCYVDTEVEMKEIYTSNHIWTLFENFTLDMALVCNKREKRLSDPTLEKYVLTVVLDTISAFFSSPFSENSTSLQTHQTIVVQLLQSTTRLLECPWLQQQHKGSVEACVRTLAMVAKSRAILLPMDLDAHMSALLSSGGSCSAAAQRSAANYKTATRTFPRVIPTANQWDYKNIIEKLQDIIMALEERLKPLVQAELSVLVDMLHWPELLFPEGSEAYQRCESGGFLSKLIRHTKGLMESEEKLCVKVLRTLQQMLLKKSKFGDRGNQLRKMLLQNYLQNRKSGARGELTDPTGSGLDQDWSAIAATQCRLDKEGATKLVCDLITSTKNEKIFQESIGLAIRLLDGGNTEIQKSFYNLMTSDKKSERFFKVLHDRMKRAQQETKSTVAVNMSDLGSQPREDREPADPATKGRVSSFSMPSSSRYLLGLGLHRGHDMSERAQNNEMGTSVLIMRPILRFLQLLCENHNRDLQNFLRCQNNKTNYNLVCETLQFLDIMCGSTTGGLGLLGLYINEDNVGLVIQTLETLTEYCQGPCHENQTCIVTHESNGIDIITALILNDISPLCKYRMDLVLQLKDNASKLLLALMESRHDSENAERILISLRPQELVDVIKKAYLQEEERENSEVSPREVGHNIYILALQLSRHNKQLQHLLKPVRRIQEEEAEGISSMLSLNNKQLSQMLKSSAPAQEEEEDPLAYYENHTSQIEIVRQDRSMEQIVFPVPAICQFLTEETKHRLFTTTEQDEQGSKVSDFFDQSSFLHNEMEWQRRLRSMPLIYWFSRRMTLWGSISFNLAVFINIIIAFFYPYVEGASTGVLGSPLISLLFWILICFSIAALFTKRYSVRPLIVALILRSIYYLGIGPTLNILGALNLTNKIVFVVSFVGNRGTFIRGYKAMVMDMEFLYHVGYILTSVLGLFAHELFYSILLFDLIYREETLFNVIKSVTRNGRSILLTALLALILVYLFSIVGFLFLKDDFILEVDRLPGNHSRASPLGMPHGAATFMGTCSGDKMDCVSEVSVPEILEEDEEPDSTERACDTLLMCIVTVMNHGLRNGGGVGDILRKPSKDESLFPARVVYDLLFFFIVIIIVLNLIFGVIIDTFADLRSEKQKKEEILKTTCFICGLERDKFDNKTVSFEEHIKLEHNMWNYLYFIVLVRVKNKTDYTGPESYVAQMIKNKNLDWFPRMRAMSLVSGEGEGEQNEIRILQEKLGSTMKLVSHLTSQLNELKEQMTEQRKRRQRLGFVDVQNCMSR
UniProt P11881: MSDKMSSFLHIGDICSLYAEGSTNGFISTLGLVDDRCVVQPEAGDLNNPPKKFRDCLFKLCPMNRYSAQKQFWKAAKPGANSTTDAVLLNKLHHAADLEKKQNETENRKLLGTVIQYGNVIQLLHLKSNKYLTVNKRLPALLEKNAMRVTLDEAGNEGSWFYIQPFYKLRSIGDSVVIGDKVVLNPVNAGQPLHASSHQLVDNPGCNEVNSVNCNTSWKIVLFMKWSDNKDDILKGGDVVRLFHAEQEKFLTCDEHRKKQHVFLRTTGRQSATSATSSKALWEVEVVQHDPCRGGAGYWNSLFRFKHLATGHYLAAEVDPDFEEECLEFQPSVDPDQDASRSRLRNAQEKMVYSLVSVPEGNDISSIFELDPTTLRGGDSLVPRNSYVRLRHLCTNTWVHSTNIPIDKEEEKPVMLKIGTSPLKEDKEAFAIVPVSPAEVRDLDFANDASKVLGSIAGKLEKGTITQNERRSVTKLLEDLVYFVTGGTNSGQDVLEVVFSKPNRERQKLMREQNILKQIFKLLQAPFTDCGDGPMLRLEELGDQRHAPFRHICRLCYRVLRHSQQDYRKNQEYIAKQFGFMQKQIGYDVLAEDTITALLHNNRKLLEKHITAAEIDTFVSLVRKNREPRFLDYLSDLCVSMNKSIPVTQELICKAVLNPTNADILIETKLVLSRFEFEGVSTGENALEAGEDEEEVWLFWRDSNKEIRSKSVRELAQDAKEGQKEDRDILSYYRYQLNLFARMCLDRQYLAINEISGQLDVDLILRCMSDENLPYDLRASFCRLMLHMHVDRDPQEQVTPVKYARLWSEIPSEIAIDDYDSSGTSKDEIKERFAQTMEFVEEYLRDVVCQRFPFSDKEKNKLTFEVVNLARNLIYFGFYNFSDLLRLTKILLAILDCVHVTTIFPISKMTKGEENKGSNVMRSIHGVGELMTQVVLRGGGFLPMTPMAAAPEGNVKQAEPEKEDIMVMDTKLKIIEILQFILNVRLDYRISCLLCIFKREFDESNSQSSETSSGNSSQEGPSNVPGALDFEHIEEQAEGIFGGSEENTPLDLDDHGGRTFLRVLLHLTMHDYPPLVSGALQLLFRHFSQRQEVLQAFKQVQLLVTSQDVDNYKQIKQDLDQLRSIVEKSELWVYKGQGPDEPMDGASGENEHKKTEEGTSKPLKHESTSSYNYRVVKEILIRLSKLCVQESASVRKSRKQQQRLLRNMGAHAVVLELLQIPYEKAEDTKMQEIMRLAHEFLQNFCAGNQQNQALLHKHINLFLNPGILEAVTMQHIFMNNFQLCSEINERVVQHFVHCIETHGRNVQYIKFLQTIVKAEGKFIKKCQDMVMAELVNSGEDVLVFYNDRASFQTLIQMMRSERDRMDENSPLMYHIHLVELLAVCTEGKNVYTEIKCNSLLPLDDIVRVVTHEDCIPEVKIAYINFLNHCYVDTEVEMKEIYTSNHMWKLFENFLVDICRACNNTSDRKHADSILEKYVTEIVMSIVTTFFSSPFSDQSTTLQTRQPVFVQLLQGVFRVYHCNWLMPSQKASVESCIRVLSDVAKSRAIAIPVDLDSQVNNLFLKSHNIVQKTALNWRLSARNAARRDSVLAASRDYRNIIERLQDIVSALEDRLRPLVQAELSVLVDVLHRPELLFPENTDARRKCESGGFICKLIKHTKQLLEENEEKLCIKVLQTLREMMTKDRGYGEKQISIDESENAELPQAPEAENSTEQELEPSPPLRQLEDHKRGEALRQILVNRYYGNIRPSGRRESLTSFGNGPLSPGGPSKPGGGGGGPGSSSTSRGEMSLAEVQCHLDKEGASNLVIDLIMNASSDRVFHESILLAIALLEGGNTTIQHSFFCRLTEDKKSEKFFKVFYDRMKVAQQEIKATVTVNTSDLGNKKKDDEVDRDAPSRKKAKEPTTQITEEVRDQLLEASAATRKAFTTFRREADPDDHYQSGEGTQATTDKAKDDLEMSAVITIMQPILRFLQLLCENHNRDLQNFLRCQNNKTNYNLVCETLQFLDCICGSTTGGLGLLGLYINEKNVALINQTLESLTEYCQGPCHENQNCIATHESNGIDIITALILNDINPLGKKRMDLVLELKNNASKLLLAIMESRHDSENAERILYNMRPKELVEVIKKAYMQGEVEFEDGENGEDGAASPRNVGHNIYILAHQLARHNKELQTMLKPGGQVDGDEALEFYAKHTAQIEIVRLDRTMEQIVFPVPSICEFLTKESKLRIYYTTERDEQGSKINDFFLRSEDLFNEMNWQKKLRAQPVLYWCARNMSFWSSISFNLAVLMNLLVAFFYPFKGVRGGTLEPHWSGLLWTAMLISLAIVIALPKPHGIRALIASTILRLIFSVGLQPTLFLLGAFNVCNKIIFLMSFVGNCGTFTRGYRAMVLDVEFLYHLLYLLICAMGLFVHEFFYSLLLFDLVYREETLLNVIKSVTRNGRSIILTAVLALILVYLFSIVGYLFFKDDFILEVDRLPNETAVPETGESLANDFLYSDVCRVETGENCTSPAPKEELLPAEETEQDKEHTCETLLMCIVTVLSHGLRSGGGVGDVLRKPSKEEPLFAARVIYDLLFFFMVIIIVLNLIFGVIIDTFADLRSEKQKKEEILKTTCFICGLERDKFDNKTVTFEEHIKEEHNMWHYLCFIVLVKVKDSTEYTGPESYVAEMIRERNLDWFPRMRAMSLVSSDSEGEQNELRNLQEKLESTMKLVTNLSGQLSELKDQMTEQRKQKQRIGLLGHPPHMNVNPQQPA

Assays:
[1] = target: T1, Inositol 1,4,5-triphosphate receptor-associated 2 (IRAG2) (mouse (endogenous in murine platelets)) (UniProt Q60664); assay: co-IP; IRAG2 precipitated with anti-mouse LRMP (C-terminal) antibody and Protein-A-Sepharose from 1000 µg platelet lysate of IRAG2-WT and IRAG2-KO mice; 50 mM Tris HCl, 15 mM EGTA, 100 mM NaCl, 0.1% Triton X-100, pH 7.5, 1 mM DTT; Western Blot of partners
T1 sequence: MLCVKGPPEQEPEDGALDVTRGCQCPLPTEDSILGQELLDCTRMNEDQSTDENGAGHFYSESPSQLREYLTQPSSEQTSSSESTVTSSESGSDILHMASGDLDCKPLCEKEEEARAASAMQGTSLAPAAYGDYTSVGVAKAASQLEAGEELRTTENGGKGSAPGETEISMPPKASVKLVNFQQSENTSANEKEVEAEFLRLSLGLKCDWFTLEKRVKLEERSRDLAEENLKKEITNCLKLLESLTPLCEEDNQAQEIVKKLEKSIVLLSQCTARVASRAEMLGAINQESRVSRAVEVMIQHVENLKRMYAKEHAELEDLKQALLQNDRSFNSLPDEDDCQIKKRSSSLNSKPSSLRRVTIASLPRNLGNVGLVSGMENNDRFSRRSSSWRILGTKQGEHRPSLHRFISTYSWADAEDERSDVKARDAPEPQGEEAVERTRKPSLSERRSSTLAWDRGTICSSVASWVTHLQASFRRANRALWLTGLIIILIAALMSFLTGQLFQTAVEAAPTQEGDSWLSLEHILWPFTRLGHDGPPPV

[2] = target: T1, Inositol 1,4,5-triphosphate receptor-associated 2 (IRAG2) (mouse (endogenous in murine platelets)); assay: as above; remark: listed apart in the source
[3] = target: T2, Inositol 1,4,5-triphosphate receptor-associated cGMP kinase substrate 1 (IRAG1) (mouse (endogenous in murine platelets)) (UniProt Q9WUX5); assay: co-IP; IRAG1 precipitated with IRAG1-specific antibody from platelets of IRAG2-WT and IRAG2-KO mice; Western Blot for IRAG2 (Figure S2)
T2 sequence: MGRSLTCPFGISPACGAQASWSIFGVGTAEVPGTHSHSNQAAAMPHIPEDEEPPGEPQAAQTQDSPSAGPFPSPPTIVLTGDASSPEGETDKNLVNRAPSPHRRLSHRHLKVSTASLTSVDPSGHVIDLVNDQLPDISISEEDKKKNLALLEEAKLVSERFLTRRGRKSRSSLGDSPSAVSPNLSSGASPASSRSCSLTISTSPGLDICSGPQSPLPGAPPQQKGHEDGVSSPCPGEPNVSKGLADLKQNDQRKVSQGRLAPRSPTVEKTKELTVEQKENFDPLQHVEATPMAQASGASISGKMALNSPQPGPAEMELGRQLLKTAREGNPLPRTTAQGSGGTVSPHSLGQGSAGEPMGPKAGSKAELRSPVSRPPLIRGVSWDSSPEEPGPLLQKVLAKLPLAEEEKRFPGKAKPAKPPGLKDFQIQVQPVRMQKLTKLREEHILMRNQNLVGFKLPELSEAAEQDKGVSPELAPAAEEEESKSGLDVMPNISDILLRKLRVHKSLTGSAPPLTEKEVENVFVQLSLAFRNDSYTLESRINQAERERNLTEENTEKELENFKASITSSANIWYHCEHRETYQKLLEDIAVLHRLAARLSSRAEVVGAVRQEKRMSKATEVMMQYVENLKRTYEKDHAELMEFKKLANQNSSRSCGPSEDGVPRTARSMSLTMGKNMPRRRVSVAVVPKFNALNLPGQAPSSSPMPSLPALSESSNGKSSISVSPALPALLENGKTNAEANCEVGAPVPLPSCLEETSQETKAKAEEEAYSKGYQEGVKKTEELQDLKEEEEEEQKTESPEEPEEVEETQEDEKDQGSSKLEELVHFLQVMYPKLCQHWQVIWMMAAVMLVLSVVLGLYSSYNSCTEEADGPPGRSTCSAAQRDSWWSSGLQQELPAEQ

For “IP3 receptor type 3 (IP3R3) (from UniProt P70227 1-2670)”, the binding [1] was “binds weakly”.

With “IP3 receptor type 1 (IP3R1) (from UniProt P11881 1-2749)” the binding [1] was “binds weakly”.

B1: cGMP-dependent protein kinase I beta (PKGIβ) (enzyme, UniProt P0C605-2 1-686)
chain: MGTLRDLQYALQEKIEELRQRDALIDELELELDQKDELIQKLQNELDKYRSVIRPATQQAQKQSASTLQGEPRTKRQAISAEPTAFDIQDLSHVTLPFYPKSPQSKDLIKEAILDNDFMKNLELSQIQEIVDCMYPVEYGKDSCIIKEGDVGSLVYVMEDGKVEVTKEGVKLCTMGPGKVFGELAILYNCTRTATVKTLVNVKLWAIDRQCFQTIMMRTGLIKHTEYMEFLKSVPTFQSLPDEILSKLADVLEETHYENGEYIIRQGARGDTFFIISKGQVNVTREDSPSEDPVFLRTLGKGDWFGEKALQGEDVRTANVIAAEAVTCLVIDRDSFKHLIGGLDDVSNKAYEDAEAKAKYEAEAAFFANLKLSDFNIIDTLGVGGFGRVELVQLKSEESKTFAMKILKKRHIVDTRQQEHIRSEKQIMQGAHSDFIVRLYRTFKDSKYLYMLMEACLGGELWTILRDRGSFEDSTTRFYTACVVEAFAYLHSKGIIYRDLKPENLILDHRGYAKLVDFGFAKKIGFGKKTWTFCGTPEYVAPEIILNKGHDISADYWSLGILMYELLTGSPPFSGPDPMKTYNIILRGIDMIEFPKKIAKNAANLIKKLCRDNPSERLGNLKNGVKDIQKHKWFEGFNWEGLRKGTLTPPIIPSVASPTDTSNFDSFPEDSDEPPPDDNSGWDIDF
With B1 the binding [2] was “no binding”.

B2: Inositol 1,4,5-triphosphate receptor-associated cGMP kinase substrate 1 (IRAG1) (protein, UniProt Q9WUX5 1-899)
chain: T2 sequence
In the case of B2, the binding [2] is reported as “no binding”.

B3: Inositol 1,4,5-triphosphate receptor-associated 2 (IRAG2) (protein, UniProt Q60664 1-539)
chain: T1 sequence
For B3, the binding [3] was “no binding”.
